Measurements published in PubChem BioAssay AID286 (DTP/NCI, 2004).
Inconclusive results and toxic doses are left out. Some entries of the source have several records that differ or are many. The list is limited to them. There may be further records. Values that stand side by side differ for a reason that is not stated; dose, time, organism, isomer or construct need not be as stated for each record.

Tested on: BDF1 mice, M5076 sarcoma ip, median survival T/C
Test: NCI In Vivo Anticancer Drug Screen. Data for tumor model Sarcoma M5076 (intraperitoneal) in B6D2F1 (BDF1) mice
Conditions: endpoint: median survival time, schedule: Q04DX005 (ip), vehicle: saline, higher = longer survival
Method: The antitumor activity of compounds was measured in mice bearing transplantable tumors. Survival or tumor size were measured and the results are expressed as the measurement made in the treated group (T) divided by the measurement made in the vehicle treated control group (C). The tumor model used in this assay is Sarcoma M5076 (intraperitoneal) in B6D2F1 (BDF1) mice

Row | Structure (SMILES) | T/C (dose: 30.0 mg/kg/injection) | T/C (dose: 12.5 mg/kg/injection) | T/C (dose: 25.0 mg/kg/injection)
1 | N[C@H](C(=O)O)[C@@H]1CC(Cl)=NO1 | 119 % of control and 155 % of control |  | 
2 | O=c1[nH]cc(F)c(=O)[nH]1 |  | 107 % of control and 196 % of control | 119 % of control and 192 % of control
